# Source: the supplement of paper PMC8728848
# Some of the results follow.
# B1: PX15618A-bth-503-24-503 (Bacteroides thetaiotaomicron) (protein)
# chain: NKSEDKLSGDDFWAQGNETNAEAFLLSIYNSFRNATMSQRPFLTYSGDMRCAPITAYSTGDKYVAYLANNDMGELRNTYPDDARGGLIMQWDVFYTAIQDANILLAEIDKVPGMDELKRSRFKAEAIFMRSLSYFFIVRAFGDVPYYTNAYNEAPLPRTNMVIVLQNCLADLQPLLDDDPGAEVLPWSYSSYSSKGIRASRGSVIALMMHINLWLVQFDAQNKEQYYRNVVSLGEELERNNGAYSLLDINRSSVIFAGGSDEGLFEIAQNINFNEIFMMNAKFSDNVSYSCLNKSMPLFCYSGDYLMTLFPMYEDDARKELWFDEKIYSTSVSSSAPKEIKKFWNIDTYGNGTITSNSGNQIVFRYAGALLLYAEALAALGTNDTKACELLNRVRNRAHASEINTSGSELMDAIFWERCRELIGEGHYYYDLVRTGKVYNRNYCMNPMTRTNFNVGAWTWPIHRNALKNNTQIGLNLFWE
# What was measured:
# Experiment in all cases: glycan array binding signal (z-score within array); higher = stronger binding
# Settings in all cases: glycan notation: IUPAC condensed, linker removed
# Fuc(a1-3)GlcNAc = molecular target: Fuc(a1-3)GlcNAc
# Method in brief: (§1)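 From the Consortium for Functional Glycomics database, 3228 arrays were curated, keeping only those whose protein sequence was available. Binding is given as a within-array Z-score averaged across arrays sharing a protein sequence and across linkers. Negative Z-scores can be read as non-binding.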
# [1] = molecular target: Fuc(a1-3)[Gal(b1-4)]Glc6S
# Method in brief: as §1
# [2] = molecular target: Fuc(a1-3)[Gal(b1-4)]GlcNAc
# Method in brief: as §1
# [3] = molecular target: Fuc(a1-3)[Gal(b1-4)]GlcNAc(b1-2)Man
# Method in brief: as §1
# [4] = molecular target: Fuc(a1-3)[Gal(b1-4)]GlcNAc(b1-2)Man(a1-3)[Fuc(a1-3)[Gal(b1-4)]GlcNAc(b1-2)Man(a1-6)]Man(b1-4)GlcNAc(b1-4)GlcNAc
# Method in brief: as §1
# [5] = molecular target: Fuc(a1-3)[Gal(b1-4)]GlcNAc(b1-2)Man(a1-3)[Fuc(a1-3)[Gal(b1-4)]GlcNAc(b1-2)Man(a1-6)]Man(b1-4)GlcNAc(b1-4)[Fuc(a1-6)]GlcNAc
# Method in brief: as §1
# [6] = molecular target: Fuc(a1-3)[Gal(b1-4)]GlcNAc(b1-3)Gal(b1-3)[Fuc(a1-4)]GlcNAc
# Method in brief: as §1
# [7] = molecular target: Fuc(a1-3)[Gal(b1-4)]GlcNAc(b1-3)Gal(b1-4)[Fuc(a1-3)]GlcNAc
# Method in brief: as §1
# [8] = molecular target: Fuc(a1-3)[Gal(b1-4)]GlcNAc(b1-3)Gal(b1-4)[Fuc(a1-3)]GlcNAc(b1-3)Gal(b1-4)[Fuc(a1-3)]GlcNAc
# Method in brief: as §1
# [9] = molecular target: Fuc(a1-3)[Gal(b1-4)]GlcNAc(b1-3)GalNAc
# Method in brief: as §1
# [10] = molecular target: Fuc(a1-3)[Gal(b1-4)]GlcNAc(b1-6)GalNAc
# Method in brief: as §1
# [11] = molecular target: Fuc(a1-3)[Gal(b1-4)]GlcNAc(b1-6)[Gal(b1-3)GlcNAc(b1-3)]Gal(b1-4)Glc
# Method in brief: as §1
# [12] = molecular target: Fuc(a1-3)[Gal(b1-4)]GlcNAc6S
# Method in brief: as §1
# [13] = molecular target: Fuc(a1-3)[Gal3S(b1-4)]Glc
# Method in brief: as §1
# [14] = molecular target: Fuc(a1-3)[Gal3S(b1-4)]GlcNAc
# Method in brief: as §1
# [15] = molecular target: Fuc(a1-3)[Gal3S(b1-4)]GlcNAc6S
# Method in brief: as §1
# [16] = molecular target: Fuc(a1-3)[GalNAc(b1-4)]GlcNAc
# Method in brief: as §1
# [17] = molecular target: Fuc(a1-3)[GalNAc(b1-4)]GlcNAc6S
# Method in brief: as §1
# Fuc(a1-4)GlcNAc = molecular target: Fuc(a1-4)GlcNAc
# Method in brief: as §1
# Fuc(b1-3)GlcNAc = molecular target: Fuc(b1-3)GlcNAc
# Method in brief: as §1
# Gal(a1-2)Gal = molecular target: Gal(a1-2)Gal
# Method in brief: as §1
# Gal(a1-3)Gal = molecular target: Gal(a1-3)Gal
# Method in brief: as §1
# Gal(a1-3)Gal(b1-3)GlcNAc = molecular target: Gal(a1-3)Gal(b1-3)GlcNAc
# Method in brief: as §1
# [18] = molecular target: Gal(a1-3)Gal(b1-3)GlcNAc(b1-2)Man
# Method in brief: as §1
# [19] = molecular target: Gal(a1-3)Gal(b1-3)GlcNAc(b1-2)Man(a1-3)[Gal(a1-3)Gal(b1-3)GlcNAc(b1-2)Man(a1-6)]Man(b1-4)GlcNAc(b1-4)GlcNAc
# Method in brief: as §1
# [20] = molecular target: Gal(a1-3)Gal(b1-3)GlcNAc(b1-3)GalNAc
# Method in brief: as §1
# [21] = molecular target: Gal(a1-3)Gal(b1-3)GlcNAc(b1-6)GalNAc
# Method in brief: as §1
# [22] = molecular target: Gal(a1-3)Gal(b1-3)[Fuc(a1-4)]GlcNAc(b1-2)Man(a1-3)[Gal(a1-3)Gal(b1-3)[Fuc(a1-4)]GlcNAc(b1-2)Man(a1-6)]Man(b1-4)GlcNAc(b1-4)GlcNAc
# Method in brief: as §1
# Gal(a1-3)Gal(b1-4)Glc = molecular target: Gal(a1-3)Gal(b1-4)Glc
# Method in brief: as §1
# Gal(a1-3)Gal(b1-4)GlcNAc = molecular target: Gal(a1-3)Gal(b1-4)GlcNAc
# Method in brief: as §1
binder,measurement,setting,value
B1,glycan array binding signal (z-score),Fuc(a1-3)GlcNAc,-0.381
same,glycan array binding signal (z-score),[1],1.64
same,glycan array binding signal (z-score),[2],0.234
same,glycan array binding signal (z-score),[3],-0.455
same,glycan array binding signal (z-score),[4],-0.28
same,glycan array binding signal (z-score),[5],-0.266
same,glycan array binding signal (z-score),[6],-0.114
same,glycan array binding signal (z-score),[7],-0.341
same,glycan array binding signal (z-score),[8],-0.064
same,glycan array binding signal (z-score),[9],-0.5
same,glycan array binding signal (z-score),[10],-0.385
same,glycan array binding signal (z-score),[11],-0.745
same,glycan array binding signal (z-score),[12],-0.893
same,glycan array binding signal (z-score),[13],-0.486
same,glycan array binding signal (z-score),[14],-0.676
same,glycan array binding signal (z-score),[15],-0.697
same,glycan array binding signal (z-score),[16],0.302
same,glycan array binding signal (z-score),[17],-0.803
same,glycan array binding signal (z-score),Fuc(a1-4)GlcNAc,0.724
same,glycan array binding signal (z-score),Fuc(b1-3)GlcNAc,-0.384
same,glycan array binding signal (z-score),Gal(a1-2)Gal,-0.293
same,glycan array binding signal (z-score),Gal(a1-3)Gal,0.035
same,glycan array binding signal (z-score),Gal(a1-3)Gal(b1-3)GlcNAc,0.517
same,glycan array binding signal (z-score),[18],-0.573
same,glycan array binding signal (z-score),[19],1.26
same,glycan array binding signal (z-score),[20],-0.186
same,glycan array binding signal (z-score),[21],-0.284
same,glycan array binding signal (z-score),[22],6.49
same,glycan array binding signal (z-score),Gal(a1-3)Gal(b1-4)Glc,-0.271
same,glycan array binding signal (z-score),Gal(a1-3)Gal(b1-4)GlcNAc,-0.019
